The campaign covered roughly 310,000 compounds. About 14,000 (4.5%) showed an effect of 50% or more. Effects have a minus sign here. Some of the results follow.
Each molecule was assayed against human ether-à-go-go-related gene (hERG) potassium channel (human, UniProt Q12809) (assay: primary screen, population patch clamp on CHO cells stably expressing hERG).
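Further: peak tail current of the secondary pulse compared with the same well before compound.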

Chain of human ether-à-go-go-related gene (hERG) potassium channel (Q12809 whole entry, looked up): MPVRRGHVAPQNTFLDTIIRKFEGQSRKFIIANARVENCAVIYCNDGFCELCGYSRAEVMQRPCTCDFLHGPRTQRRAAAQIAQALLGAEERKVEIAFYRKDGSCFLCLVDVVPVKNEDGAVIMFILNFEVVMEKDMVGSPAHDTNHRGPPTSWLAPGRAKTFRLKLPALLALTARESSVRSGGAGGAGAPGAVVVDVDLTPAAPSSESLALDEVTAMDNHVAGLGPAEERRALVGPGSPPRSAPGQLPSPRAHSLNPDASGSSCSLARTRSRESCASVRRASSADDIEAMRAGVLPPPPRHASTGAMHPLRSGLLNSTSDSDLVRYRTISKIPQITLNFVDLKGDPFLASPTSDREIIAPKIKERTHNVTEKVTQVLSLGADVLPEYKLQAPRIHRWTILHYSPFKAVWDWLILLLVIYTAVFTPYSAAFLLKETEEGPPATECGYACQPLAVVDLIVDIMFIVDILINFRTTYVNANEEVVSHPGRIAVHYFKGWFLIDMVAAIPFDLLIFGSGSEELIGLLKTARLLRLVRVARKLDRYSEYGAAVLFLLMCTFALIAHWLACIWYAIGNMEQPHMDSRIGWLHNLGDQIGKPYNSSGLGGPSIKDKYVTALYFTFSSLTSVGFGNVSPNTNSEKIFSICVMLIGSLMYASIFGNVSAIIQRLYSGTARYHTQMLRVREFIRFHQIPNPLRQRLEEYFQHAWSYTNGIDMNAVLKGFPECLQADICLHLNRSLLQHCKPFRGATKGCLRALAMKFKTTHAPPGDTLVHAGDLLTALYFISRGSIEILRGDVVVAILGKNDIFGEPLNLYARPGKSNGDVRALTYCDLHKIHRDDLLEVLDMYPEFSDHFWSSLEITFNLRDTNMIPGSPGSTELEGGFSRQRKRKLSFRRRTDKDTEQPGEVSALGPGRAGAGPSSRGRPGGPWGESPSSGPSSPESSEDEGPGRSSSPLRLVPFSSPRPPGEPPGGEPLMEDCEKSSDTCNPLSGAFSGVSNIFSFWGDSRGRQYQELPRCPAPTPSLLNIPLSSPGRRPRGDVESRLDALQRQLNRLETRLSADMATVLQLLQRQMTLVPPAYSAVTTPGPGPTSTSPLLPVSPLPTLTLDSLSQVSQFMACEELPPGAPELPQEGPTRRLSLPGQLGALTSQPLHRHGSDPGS

Row | SMILES | hERG current change (%, negative = inhibition) at 10uM
1 | COC(=O)CSc1nc(C)c(C(=O)Nc2ccccc2C)c(-c2ccc(Cl)cc2)c1C#N | 2.67%
2 | COc1ccc(-c2csc(NC(=O)CCNC(=O)c3ccco3)n2)cc1OC | -17.9%
3 | Nc1nc(SCc2ccc(Br)cc2)[nH]c(=O)c1-c1ccccc1 | 11.4%
4 | CCCCc1cc(=O)oc2cc(C)c(CN3CCCC3)c(O)c12 | -24.7%
5 | COC(=O)N/N=C1/C/C(=N\NC(=O)OC)c2ccccc21 | 9.63%
6 | CS(=O)(=O)c1ccc(C(=O)CN2C(=O)NC3(CCCc4ccccc43)C2=O)cc1 (stereo not drawn) | -51.5%
7 | COc1ccc(Nc2c3c(nc4ccccc24)CCC3)c(OC)c1 | -64.7%
8 | COc1ccc(NC(=O)c2cc(-c3ccc(C)cc3O)n[nH]2)c(OC)c1 | 32.1%
9 | CCOc1ccc(/C=C2\SC(=S)N(CC(=O)NCCCN3CCOCC3)C2=O)cc1 | -17%
10 | COc1ccccc1N1CC(C(=O)Nc2nnc(SCc3ccccn3)s2)CC1=O (stereo not drawn) | -6.03%
11 | O=C(NCc1ccncc1)C(=O)NCC1OCCN1S(=O)(=O)c1ccc(Br)cc1 (stereo not drawn) | -7.57%
12 | CCOc1ccccc1N1C(=O)c2ccc(C(=O)O)cc2C1=O | 11%
13 | O=C(Nc1cccnc1)c1noc2c1CCCC2 | -4.38%
14 | CCC(C)OC(=O)C1=C(C)NC2=C(C(=O)C(C(=O)OC)C(C)C2)C1c1ccc(N(C)C)cc1 (stereo not drawn) | -9.27%
15 | CCc1noc(C)c1C(=O)N(CC)CC(=O)Nc1cc(Cl)ccc1C | 10.3%
16 | O=S(=O)(c1ccc(Br)c2ccccc12)N1CCCC1 | 22.2%
17 | NNC(=O)c1cccc(S(=O)(=O)Nc2cc(Cl)ccc2Cl)c1 | 2.86%
18 | CCn1nc(C(=O)OCC(=O)NCC(C)C)c2ccccc2c1=O | 0.00988%
19 | Cc1cc(-c2nn(-c3ccccc3F)cc2CN2CCC(C(N)=O)CC2)c(C)s1 | -28.5%
20 | CC(C)n1cc(C(=O)c2cc(Br)ccc2O)cc(C#N)c1=O | -4.75%
21 | COc1cc(C(=O)NCC2CCCCC2)ccc1OCc1c(C)noc1C | 2.61%
22 | CCOP(=O)(OCC)C(NC(=O)Nc1ccc(Cl)c(Cl)c1)c1ccccc1 (stereo not drawn) | 1.82%

Row | SMILES | hERG current change (%, negative = inhibition) at 10uM
23 | CCOc1cccc(C2C(C(=O)c3cccs3)=C(O)C(=O)N2Cc2cccnc2)c1 (stereo not drawn) | 18.3%
24 | C=CCn1c(COc2ccc(F)cc2)nnc1SCC(=O)N1CC(=O)Nc2ccccc21 | -33%
25 | Cl.Cn1cc(C(=O)NCN2CCCCC2)c2ccccc21 | 17%
26 | COCCN1C=C2C(=O)C(C)(OC(=O)CCC(=O)OC)C(=O)C=C2C=C1C1CC1 (stereo not drawn) | 14.4%
27 | CCCn1nc(NC(=O)c2cccs2)c2cc3ccc(C)cc3nc21 | 14.8%
28 | COc1ccc(-c2cnnc(N/N=C/c3ccc(OC)c(OC)c3)n2)cc1 | -35.7%
29 | COc1ccc(N2CC(C(=O)NCc3nnnn3-c3ccc(C)c(C)c3)CC2=O)cc1 (stereo not drawn) | -19.6%
30 | CCCn1c(SCC(=O)N2CCCCC2)nnc1-c1ccco1 | 6.93%
31 | CCCCCCCCCCCCCCCC[N+](C)(C)CCN(Cc1ccc(OC)cc1)c1ncccn1.[Br-] | -75%
32 | COc1ccc(OC)c(/C=N/NC(=O)CNC(=O)c2ccc(S(=O)(=O)N3CCCC3)cc2)c1 | -5.56%
33 | CCOc1ccc(-c2nnn(CC(=O)Nc3cc(OC)cc(OC)c3)n2)cc1OCC | 16.6%
34 | C/C=C/Cn1c(SCc2ccccc2)nc2c1c(=O)[nH]c(=O)n2C | -11.2%
35 | CCn1nc(NS(=O)(=O)c2ccccc2)c2cc3ccccc3nc21 | 20.2%
36 | CCCCn1c(SCC(=O)NCc2ccccc2)nc2ccc(N3CCOCC3)cc2c1=O | -13.9%
37 | O=C(Nc1ccc(F)cc1F)N1CCC(c2nc3ccccc3o2)CC1 | -37.6%
38 | C=CCc1c(C)[nH]c(=O)[nH]c1=O | 11.4%
39 | CCc1cccc(NC(=O)c2ccc(Br)o2)c1 | -46.1%
40 | CCOC(=O)C1CCN(C(=O)CN2C(=O)c3cccnc3Oc3ccc(C)cc32)CC1 | -25.8%
41 | Cc1ccccc1NC(=O)C1CC(=O)OC12CCOC(C)(C)C2 (stereo not drawn) | 10.9%
42 | CCOC(=O)C1=C(C)NC(=O)C(C#N)C1c1ccncc1 (stereo not drawn) | -4.46%
43 | Cc1cccc(C)c1NC(=O)/C(C#N)=C/c1ccsc1 | -13.2%
44 | Cc1cc(C)n2nc(C(=O)NNC(=O)c3ccccc3)nc2n1 | 9.18%

Row | SMILES | hERG current change (%, negative = inhibition) at 10uM
45 | CCCN(CCC)S(=O)(=O)c1ccc(C(=O)Nc2cccnc2)cc1 | -11.2%
46 | COCC1CCCCC1OS(N)(=O)=O (stereo not drawn) | 5.38%
47 | O=C(Nc1ccc(C(=O)N2CCCCC2)cc1)c1ccc([N+](=O)[O-])cc1 | -1.34%
48 | Cc1ccc(CNC(=O)CSc2ncccn2)cc1 | 5.97%
49 | O=C1C=CC2C(c3ccc4c(c3)OCO4)CC1N2Cc1ccccc1 (stereo not drawn) | 3.63%
50 | Oc1ccc(C[C@@H]2CNCCN2CCc2cccc3ccccc23)cc1 | -64.5%
51 | O=C(O)C1CCCCC1C(=O)NCCCCc1ccccc1 (stereo not drawn) | -14.6%
52 | Cc1cc(C(=O)N/N=C/c2ccc(-c3ccc([N+](=O)[O-])cc3Cl)o2)n[nH]1 | 1.04%
53 | CC1Cc2nc(SCC(=O)N3CCCc4ccccc43)n(C)c(=O)c2S1 (stereo not drawn) | -11.7%
54 | COc1ccc(NC(=O)C2CC2)cc1NS(=O)(=O)c1ccc(F)cc1 | 4.9%
55 | CCC1=[N+](CC(=O)c2ccc(Br)cc2)CCn2c(C)ccc21.[Br-] | -6.76%
56 | O=C(NCCNCCO)C1(C(F)(F)F)C/C(=C\CCO)CCCO1 (stereo not drawn) | -1.27%
57 | CCOC(=O)C1=CCN(Cc2ccccc2)CC1.Cl | 12.8%
58 | COc1cc(-n2c(=O)c3ccccc3n(Cc3cccnc3)c2=O)cc(OC)c1OC | 5.1%
59 | COc1cccc(C(=O)NC2CC3CCCC(C2)N3CC(=O)Nc2ccccc2)c1.Cl (stereo not drawn) | -54.4%
60 | COc1ccc2nc(N3CCOCC3)cc(C)c2c1 | -0.452%
61 | CCCOc1ccc(CC(=O)NCc2ccco2)cc1OC | 8.13%
62 | CC1=C(C(=O)OCC2CCCO2)C(c2ccccc2OC(C)C)C2=C(CC(c3ccco3)CC2=O)N1 (stereo not drawn) | -57.8%
63 | O=C(O)C(Cc1ccccc1)N1C(=O)c2c(Cl)c(Cl)c(Cl)c(Cl)c2C1=O (stereo not drawn) | 3%
64 | Cc1ccccc1C(=O)N1CCN(S(=O)(=O)c2ccccc2)CC1 | -5.44%
65 | Cn1c(=O)c(C(=O)NCc2ccccc2Cl)c(O)c2ccccc21 | 24.6%
66 | CCOc1ccc(NC(=O)CSc2nc(C)c3c(c2C#N)CCCC3)cc1 | -10.6%

Row | SMILES | hERG current change (%, negative = inhibition) at 10uM
67 | CC(C)NS(=O)(=O)c1ccc(CCC(=O)N2CCC(C(N)=O)CC2)cc1 | 12.1%
68 | O=C(COc1ccccc1Cl)NNC(=O)C1CCCO1 (stereo not drawn) | -9.45%
69 | COc1ccc(O)c(/C=N/NC(=O)CSc2nnc(C)n2-c2ccccc2)c1 | -7.02%
70 | COc1ccc2[nH]c(=O)c(CN(Cc3cccs3)Cc3nnnn3C(C)(C)C)cc2c1 | -46.9%
71 | CCc1ccc(-c2nc3ccc(Br)cc3c(C(=O)O)c2C)s1 | 19.1%
72 | CC(C)CCNC(=S)Nc1ccccc1F | -0.715%
73 | O=C(CCN1C(=O)c2cccc3cccc(c23)C1=O)N1CCN(Cc2ccc3c(c2)OCO3)CC1 | -29.2%
74 | O=C(NN=C1CCCC1)c1cc(-c2ccccc2)n[nH]1 | 9.37%
75 | CCC(C)NC(=O)Cn1c(=O)n(CCCCCC(=O)Nc2ccccc2)c(=O)c2sccc21 (stereo not drawn) | -40.5%
76 | CCCC(=O)NCCCc1nc2ccccc2[nH]1 | 25.4%
77 | Cc1ccc(NC(=S)Nc2ccc3cn[nH]c3c2)cc1 | 2.94%
78 | COc1ccc(C(=O)C2CN(c3ccccc3)CC2c2ccc(Cl)cc2)cc1 (stereo not drawn) | -4.84%
79 | CCn1cc(C(=O)NCCCOC)c2cc(OC)c(OC)cc2c1=O | 0.546%
80 | CCN(c1ccc(OC)cc1)S(=O)(=O)c1ccc(-c2ccc(=O)[nH]n2)o1 | 6.45%
81 | CC12CCC(=O)N1C(C(=O)Nc1cc(C(F)(F)F)ccc1N1CCCCC1)CS2 (stereo not drawn) | 8.84%
82 | Cc1ccc(S(=O)(=O)Nc2cccc(C(=O)NCC(c3ccco3)N(C)C)c2)cc1F (stereo not drawn) | -29.1%
83 | Cc1c(NS(=O)(=O)c2ccc(Cl)c(C(=O)OC(C)C(=O)N3CCOCC3)c2)c(=O)n(-c2ccccc2)n1C (stereo not drawn) | 5.07%
84 | O=C(NC(=S)NCc1cccnc1)c1ccc([N+](=O)[O-])cc1 | -48.3%
85 | COc1cc(C2NC(=O)NC(C)=C2C(=O)OC(C)(C)C)ccc1OCC(N)=O (stereo not drawn) | 9.28%
86 | O=C(CNC(=O)Cc1ccccc1)N=Nc1c(O)[nH]c2ccccc12 | 2.61%
87 | CCOC(=O)N1CCN(C(=O)c2cn(CC)c3cc(N4CCN(C)CC4)c(F)cc3c2=O)CC1.Cl | 12.6%

From article PMC4336329 (PLoS ONE, 2015)
